# Source: the supplement of paper PMC3334620
# Over roughly 33,000 sequences, “E-score (-0.5 to 0.5)” has its median near -0.016; the highest 2% begin near 0.32. Some of the results follow.
# Target: T1, Stp1 (UniProt B3LFK1)
# T1 sequence: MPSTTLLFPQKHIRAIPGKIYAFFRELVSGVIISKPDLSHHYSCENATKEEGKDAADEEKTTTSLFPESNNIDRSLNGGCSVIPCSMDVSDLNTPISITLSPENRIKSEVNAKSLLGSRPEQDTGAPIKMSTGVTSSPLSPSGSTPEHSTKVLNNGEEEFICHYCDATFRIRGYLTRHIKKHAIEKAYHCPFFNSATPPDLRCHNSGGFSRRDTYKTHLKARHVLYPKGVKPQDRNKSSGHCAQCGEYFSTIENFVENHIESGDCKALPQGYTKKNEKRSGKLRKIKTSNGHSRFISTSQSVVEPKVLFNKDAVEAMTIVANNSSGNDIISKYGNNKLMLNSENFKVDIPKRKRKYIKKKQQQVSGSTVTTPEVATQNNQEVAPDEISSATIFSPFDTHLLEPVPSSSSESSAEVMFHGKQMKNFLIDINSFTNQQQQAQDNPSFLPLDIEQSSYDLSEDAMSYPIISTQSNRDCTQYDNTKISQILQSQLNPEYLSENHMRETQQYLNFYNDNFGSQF
# Experiment: PBM E-score (8-mer binding enrichment) (E-score (-0.5 to 0.5)); higher = stronger / more preferred TF binding; most listed sequences are background and not binding sites
# Settings: protein concentration: 200 nM; construct: GST-full length
# Method in brief: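 Each ungapped eight-base word and its reverse complement, pooled, received an E-score from the Universal PBM Analysis Suite. Underlying scans, normalised with masliner, recorded fluorescent anti-GST bound to GST-tagged yeast transcription factors. These were applied at about 100-200 nM to universal all-10-mer Agilent arrays double-stranded by primer extension.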
row,Sequence,PBM E-score
1,TCGTTAGA,-0.0359
2,GTAACTTA,-0.00295
3,GGTTTCAC,-0.0723
4,GCCTCTCA,0.00233
5,CATCCCGA,-0.00414
6,GTATAAAA,0.295
7,GGCTGGGA,-0.249
8,ACACCTAT,-0.0456
9,TGTTAGAA,0.0155
10,CGCGCGAC,0.12
11,ACACGCAC,0.0603
12,TCCGAACA,-0.0393
13,AAAGGGGA,-0.302
14,ACACTGTG,0.0704
15,AGTAAGTG,-0.12
16,TCTTAGCA,-0.0676
17,AGTGACCA,-0.242
18,GTGAACAC,-0.15
19,ATATATTA,0.329
20,GGCGCGAA,0.37
21,CGTACCAC,0.11
22,GCTACCCC,-0.292
23,CCCATGCC,-0.0109
24,CACGCAAC,0.214
25,AACACCTA,-0.0644

row,Sequence,PBM E-score
1,ACGGTCAC,-0.305
2,CAGCAGCC,0.0196
3,CCGCCAGA,-0.00376
4,GACACACA,0.0818
5,ATCCGCCC,-0.217
6,ACGCCACG,0.0972
7,CAGAAGGG,-0.188
8,TCCAGTAA,-0.233
9,TACTAGCA,-0.0131
10,AGTGTTTG,0.0488
11,CTTAGGAC,-0.0947
12,CCCACGAA,0.105
13,CGTTTCTA,0.033
14,ATTTCGCC,0.336
15,GATACCTA,0.00089
16,ATCATGAG,-0.00837
17,GATACAGA,0.124
18,ACGAATCG,0.182
19,CGGTTGCA,-0.0488
20,CGGAGCCG,0.302
21,AGCGAACG,-0.0739
22,AGCTACAC,0.00428
23,CTTCTCGC,0.0351
24,CGGCTGAC,0.0536
25,ACGATGTC,-0.0396

row,Sequence,PBM E-score
1,AGCGTTAT,-0.106
2,CCAAGATA,-0.0296
3,AACTGGCC,-0.0401
4,AAACCCTT,-0.142
5,CATCGCCA,0.0899
6,GATATCTA,-0.0487
7,CGCTTAGA,-0.263
8,GTTCTCTA,-0.0124
9,GAAGGTGC,-0.169
10,CATGCCAG,-0.0265
11,AATCCTGG,-0.129
12,GATAGGTA,-0.0532
13,GCTCGCGA,0.017
14,TCGATCGA,0.212
15,ACATTTAG,-0.195
16,AAGTTTGT,0.107
17,CCATCCGC,0.111
18,ACATCGTG,0.128
19,AAGGATTG,-0.0374
20,AGCACCAA,-0.118
21,GTCACATA,0.123
22,AACCGATC,0.0212
23,CTCCGGCC,-0.296
24,CACACACC,-0.176
25,CATCTCAC,0.0478

row,Sequence,PBM E-score
1,CTCTCTCA,-0.0887
2,ATGCCGTA,0.478
3,CGCATTGC,0.258
4,AAGTACCG,0.03
5,CACGCCTG,-0.136
6,CTGAACGA,-0.0923
7,TATACGGA,0.0644
8,CCCTTTAA,0.0854
9,AGACAGCC,-0.149
10,CCACCGTC,-0.0976
11,TATGCTAA,0.0381
12,AAGTTCTC,-0.115
13,AGTAAGCG,0.126
14,CGGATCAC,0.0376
15,GCCTTACA,0.208
16,ACGAGGAC,-0.161
17,CGCACTAA,-0.0203
18,CGTATCGC,0.126
19,TTCCACAA,0.163
20,TACAGCCA,-0.0214
21,CGTAATAA,0.0445
22,GCCCCCAC,-0.333
23,CTCCTCTC,-0.263
24,ATCGAAGA,0.171
25,GAGCCGAA,0.232

row,Sequence,PBM E-score
1,ATTCCACC,-0.056
2,AAGGGAAT,-0.147
3,ACTGACAC,0.074
4,AAAGAGGC,0.00916
5,ATGCAGGC,-0.111
6,CGATCCAC,-0.121
7,CCTCAAGG,-0.0722
8,TGGCGTAA,0.0095
9,AGGCGTGA,0.0215
10,CAAGGCAG,0.0951
11,CCGCTCCA,-0.0259
12,ACCCACCG,-0.133
13,GATAAGCC,-0.257
14,AACCGTAC,-0.0138
15,CCCCGTTC,-0.235
16,ACGTTAAT,0.112
17,CACCGAAC,0.205
18,CCGATCAG,0.058
19,TACCCAGA,-0.221
20,CACGCGTG,0.241
21,ATCGGGAA,-0.0127
22,CGTAGTTA,0.125
23,AGCGCACA,-0.322
24,GTAATCAC,0.0423
25,GGCTTGTA,0.00445

row,Sequence,PBM E-score
1,ACATGGGA,-0.0523
2,GAAGGGGA,-0.155
3,ATTACTAG,0.0532
4,ATTCCTGG,-0.0882
5,GCGGCCAA,0.161
6,ACACGGAC,0.217
7,CACAATTA,0.142
8,GTATGTAA,0.138
9,GACCGGTC,-0.341
10,GACCTTCC,-0.227
11,CATATTAG,0.209
12,AGGCTCCA,-0.0273
13,CCCGTAAA,0.226
14,CGCCGCAG,0.436
15,CGCTTGCA,-0.0492
16,ATTTTACA,-0.0146
17,CTCCCCTA,-0.205
18,CTCAATCC,-0.0026
19,GGCGACTA,0.106
20,TAGCCTCA,-0.04
21,ACGCCAGC,-0.0205
22,AATAAGAA,0.207
23,AGACTTCA,-0.264
24,GTCCTCTA,-0.345
25,AAAGAATA,0.143

row,Sequence,PBM E-score
1,TCCCGACA,-0.00548
2,AGGGCGTC,0.131
3,CTTCGTGC,0.159
4,ATGGGCCC,-0.218
5,CAACGGAC,0.165
6,CGAGTTAA,0.173
7,CGGGCCTC,-0.00487
8,CACTGAAG,0.0432
9,AAGAGTCT,-0.209
10,CAAGGTCG,-0.241
11,CCATTAGC,-0.0162
12,CGATTCAG,-0.0722
13,GCTGTCTA,-0.0314
14,AATTGGTA,0.109
15,AGTCGATC,-0.128
16,TCCTAACA,-0.038
17,TACCACAA,0.00188
18,AGCAGGCA,-0.0398
19,ACGACAAA,0.157
20,ACGTAGCG,-0.152
21,CTTCAGCC,-0.266
22,AAAACACC,0.0808
